± gives the standard deviation of the averaged measurements. The list shows a part of the results.

The assay has as its system PfAP2-G AP2 domain (GST-tagged). In words: gcPBM binding intensity (ln(normalized median fluorescence intensity)); higher = stronger DNA binding. An outline of the steps: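 After 1 h on an Agilent 4 × 180k array of primer-extended double-stranded 36-bp intergenic genomic probes and negative controls, bound GST-tagged P. falciparum DNA-binding domains were detected with Alexa488 anti-GST antibody and scanned at 488 nm. The domains had been expressed in E. coli, and binding took place in 1× PBS with 1% milk, 0.2 mg/ml BSA, 0.5% salmon testes DNA and 0.03% Triton X-100. Binding intensity is the highest Masliner-normalised natural-log median intensity across replicate spots of either probe orientation.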
As to “TATATAACATATATATGTACACATAATATCAGATTT [XGTACX_site1041]”, the “gcPBM binding intensity (ln)” value came to 11.4 ± 0.99.
For “AAGGTATAGAAACACACACACGTGAATATAGTTTAA [CACACA_site5109]” the value was 10.01 ± 0.028.
Then “AGGATATATTATATGTACACACACATATAAGGGATT [GTGCAC_negctrl_site47]”, with 11.4 ± 0.79; and “TATTACACACAATATTGTACACATAGGAAAAATATT [XGTACX_site1726]”, with 11.4 ± 0.91.
With “GCATTTATGAAAAATGTACACACATCAAATGCTTAT [CACACA_site9347]”, the “gcPBM binding intensity (ln)” value came to 11.2 ± 0.83.
For “ACAAAAATATTTGTAAAAAGAAATATAAATAAATAA [TGCATGCA_negctrl_site357]” the value was 9.725 ± 0.092; for “AAAAATAGAGCAGCTCTCATATTTTTATGTGCAATA [CACACA_negctrl_site837]”, 9.69 ± 0.071.
Consider “AAATAAAATAAAAGCACACAAAATGTAAATAATTAT [CACACA_site2775]”, for which the “gcPBM binding intensity (ln)” value is 10.01 ± 0.035.
For “GATTATCTATCGCTTGAATGAAATGAAATCATGCAA [GTGCAC_negctrl_site471]” the value was 9.725 ± 0.064.
For “ATAATAAATGATAGCACACATATGTACATATATACA [CACACA_site864]” the value was 11.3 ± 0.64; for “AATACCGGAAAGCAAACACACATTTTAAAACCATAA [CACACA_site3862]”, 10.2 ± 0.2.
For “AAAGAAATAAAAAAAAGTACACAATTATAAATATAT [XGTACX_site3428]” the value was 11.5 ± 0.93.
As for “GTATGTAATATTTTAGTGCAAAAAAAAAAAAAAAAA [GTGCAC_site9790]”, the “gcPBM binding intensity (ln)” value was found to be 9.8 ± 0.4.
Then “AAAATACTTTGAATTTGTACATATAGACATAATATT [XGTACX_site6181]”, with 10.7 ± 0.38.
Turning to “CGCGAACATACATACACACACATATTTATATAGGTA [CACACA_site6241]”, the “gcPBM binding intensity (ln)” value came to 10.1 ± 0.042.
Then “TTCTGCTACCACTTGAATGTCAATGAAATTAAAAAA [CACACA_negctrl_site1164]”, with 10.6 ± 0.74.
Then “TATATATATATAATTTGTACATATATATGTAACAAT [XGTACX_site8728]”, with 11.1 ± 0.69.
Then “ATACAATACACCGAACGTACATAAATCTATCTTTTA [XGTACX_site3668]”, with 11.1 ± 0.69; and “ATTTTTTTTTTTACAGTGGAACCATATTTGCTCATT [CACACA_negctrl_site940]”, with 10.3 ± 0.38; and “ATTTATAAAACAGGCACACATATAATAAATTTTATA [CACACA_site2600]”, with 10.05 ± 0.092.
For the sequence “TAATAATTATTGCACGCACACAAAAACCTATAGATT [CACACA_site2931]”, the “gcPBM binding intensity (ln)” value is 10.4 ± 0.27.
In the case of “ACTATAAATATTTATAAACACACAAATATATATATT [CACACA_site7891]”, the “gcPBM binding intensity (ln)” value was determined as 10.2 ± 0.18.
For “TTTTAATTAAAAAAATATATAATAAAATTAAATTAT [CACACA_negctrl_site95]” the value was 9.69 ± 0.11.
For “GGTATATAAAAATATTGTACGAAAATATGCATATAA [XGTACX_site2501]” the value was 10.9 ± 0.5.

Values taken from the supplement of paper PMC11417369.
